According to the BET-seq Pho4 binding data (Le et al. 2018):
Some of the results follow. These are noisy estimates, calculated here from bound and input reads.

target: T1, Pho4 (S. cerevisiae) (UniProt P07270); assay: relative binding free energy (BET-seq); higher = weaker binding; conditions: reference: library average
T1 sequence: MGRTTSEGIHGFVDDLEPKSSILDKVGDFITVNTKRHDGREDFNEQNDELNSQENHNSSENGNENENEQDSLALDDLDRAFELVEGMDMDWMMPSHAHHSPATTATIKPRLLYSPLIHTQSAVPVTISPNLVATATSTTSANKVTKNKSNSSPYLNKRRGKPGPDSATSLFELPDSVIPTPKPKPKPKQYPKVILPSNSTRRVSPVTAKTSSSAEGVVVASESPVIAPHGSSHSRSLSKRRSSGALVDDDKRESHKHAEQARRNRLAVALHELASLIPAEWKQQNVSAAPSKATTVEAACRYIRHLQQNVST

Row | Sequence | relative binding free energy
1 | GGGTACACGTGTTAAT | 0.03 kcal/mol
2 | TGGTACACGTGTGTGG | 0.15 kcal/mol
3 | TTGTGCACGTGGCGGC | -0.1 kcal/mol
4 | TGGTGCACGTGCCGGG | -0.23 kcal/mol
5 | TAATTCACGTGTGTTT | 0.24 kcal/mol
6 | TGGCACACGTGTTGGT | 0.17 kcal/mol
7 | TTCTGCACGTGGAAAT | 0.2 kcal/mol
8 | AAATACACGTGAGGGG | 0.34 kcal/mol
9 | TAGAGCACGTGGATGA | -0.07 kcal/mol
10 | ATGGGCACGTGGTCAG | -0.26 kcal/mol
11 | GGGTTCACGTGCTTGA | 0.34 kcal/mol
12 | TGGTTCACGTGTTCTC | 0.27 kcal/mol
13 | AGGTACACGTGTGTTA | 0.05 kcal/mol
14 | TCCTACACGTGGGGGT | -0.08 kcal/mol
15 | GAGATCACGTGGTTGA | 0.13 kcal/mol
16 | ATGGGCACGTGTTGAC | -0.14 kcal/mol
17 | CCTGTCACGTGGGATT | 0.07 kcal/mol
18 | CTTTGCACGTGGTGTG | -0.04 kcal/mol
19 | AGAATCACGTGCGGGT | 0.17 kcal/mol
20 | GGTTACACGTGGACGG | 0.16 kcal/mol
21 | TCGGACACGTGTTCGG | 0.15 kcal/mol
22 | TGTATCACGTGGTGGG | 0.09 kcal/mol
23 | TTCAGCACGTGATTGT | 0.12 kcal/mol
24 | ATTTGCACGTGCGCTG | -0.03 kcal/mol
25 | CTTGGCACGTGGTAGG | -0.16 kcal/mol

Row | Sequence | relative binding free energy
26 | GCAGTCACGTGGTAGG | 0.21 kcal/mol
27 | CAGGGCACGTGCGGGG | -0.22 kcal/mol
28 | GTGTACACGTGTCTTG | 0 kcal/mol
29 | ATAGGCACGTGTGTTA | 0.01 kcal/mol
30 | TTCTTCACGTGGCGGG | 0.28 kcal/mol
31 | GGAGACACGTGTGGCG | 0.1 kcal/mol
32 | TGTTGCACGTGTCCTT | 0.1 kcal/mol
33 | AAGAACACGTGTTGTT | 0.05 kcal/mol
34 | GTGGCCACGTGGAAGT | 0.04 kcal/mol
35 | GTGGGCACGTGTGCAA | -0.12 kcal/mol
36 | TTACCCACGTGTGGTT | -0.02 kcal/mol
37 | ATTGACACGTGGTTCG | -0.05 kcal/mol
38 | TTAGGCACGTGGTTTA | -0.22 kcal/mol
39 | CAATACACGTGTGTTT | 0.04 kcal/mol
40 | TTCTGCACGTGGCTTG | -0.15 kcal/mol
41 | GTGTTCACGTGTACAT | 0.16 kcal/mol
42 | GTTTTCACGTGGTGCT | 0.4 kcal/mol
43 | AAGTACACGTGTTATT | -0.01 kcal/mol
44 | GAGGGCACGTGCGAGG | -0.09 kcal/mol
45 | GTGGACACGTGTCGTG | 0 kcal/mol
46 | AGATGCACGTGGCGGG | -0.08 kcal/mol
47 | TGACACACGTGTAGGG | -0.01 kcal/mol
48 | AGTAGCACGTGGATTA | -0.04 kcal/mol
49 | GCGGGCACGTGTGATG | -0.03 kcal/mol
50 | GATTGCACGTGAGTAA | 0.3 kcal/mol

Row | Sequence | relative binding free energy
51 | ATAATCACGTGAGATT | 0.35 kcal/mol
52 | ATGGACACGTGTTGCG | -0.11 kcal/mol
53 | AGGAACACGTGGTAAG | 0.06 kcal/mol
54 | TTTTTCACGTGGCCTA | 0.2 kcal/mol
55 | CGAGGCACGTGGGTGT | -0.24 kcal/mol
56 | GGGAGCACGTGGGATA | -0.12 kcal/mol
57 | GTTGACACGTGTAAGG | 0.16 kcal/mol
58 | TCAGTCACGTGAGGTA | 0.3 kcal/mol
59 | CGTAGCACGTGGGTAA | -0.17 kcal/mol
60 | TGGTTCACGTGAAGTC | 0.34 kcal/mol
61 | GTGTGCACGTGGAGCA | 0.05 kcal/mol
62 | TGTGTCACGTGTTGTA | 0.06 kcal/mol
63 | GCAGGCACGTGGTGAG | -0.19 kcal/mol
64 | GAGGCCACGTGGGGAG | -0.05 kcal/mol
65 | ATAGGCACGTGGGCGG | -0.26 kcal/mol
66 | TTTTTCACGTGTTCCT | 0.36 kcal/mol
67 | AATTACACGTGGTGTG | -0.1 kcal/mol
68 | GACGGCACGTGGTGGA | -0.14 kcal/mol
69 | TGGATCACGTGGCGTG | 0.08 kcal/mol
70 | CGGGTCACGTGTTGAG | 0.13 kcal/mol
71 | GAGTTCACGTGTTCTT | 0.56 kcal/mol
72 | GGTTGCACGTGTGGGA | 0.1 kcal/mol
73 | TTTAGCACGTGATTTC | 0.03 kcal/mol
74 | AAAAACACGTGTTGGA | 0.06 kcal/mol
75 | GGTTGCACGTGGTACA | -0.14 kcal/mol

Row | Sequence | relative binding free energy
76 | TCGTTCACGTGATGTG | 0.35 kcal/mol
77 | CAGGTCACGTGTAGGT | 0.13 kcal/mol
78 | TAAGCCACGTGTTTGT | -0.14 kcal/mol
79 | CAGGTCACGTGTTGTA | 0.11 kcal/mol
80 | AGGTTCACGTGCGGGG | 0.21 kcal/mol
81 | TAATTCACGTGAGTAA | 0.49 kcal/mol
82 | AGTACCACGTGTTGTT | -0.12 kcal/mol
83 | CTGGGCACGTGTGATT | -0.06 kcal/mol
84 | GGCGGCACGTGTGTTG | 0.08 kcal/mol
85 | GTGTTCACGTGCACGT | 0.18 kcal/mol
86 | AGTTTCACGTGGGTTG | 0.3 kcal/mol
87 | GTGCTCACGTGAATTT | 0.51 kcal/mol
88 | GGTTTCACGTGGGAAC | 0.21 kcal/mol
89 | TGGTCCACGTGAGTAA | 0.39 kcal/mol
90 | AGCGACACGTGGGGAG | -0.08 kcal/mol
91 | TGTCACACGTGGGTTT | 0.01 kcal/mol
92 | GGGATCACGTGTTACT | 0.2 kcal/mol
93 | ATCTGCACGTGGCGGG | -0.1 kcal/mol
94 | TCTTGCACGTGTTGGT | 0.04 kcal/mol
95 | TGTCCCACGTGTGGTT | -0.13 kcal/mol
96 | CACGGCACGTGTTGGG | -0.07 kcal/mol
97 | GGGGGCACGTGTCGTA | -0.1 kcal/mol
98 | GTGATCACGTGGTGGC | 0.07 kcal/mol
99 | TTGGTCACGTGATTGG | 0.15 kcal/mol
100 | AAATGCACGTGATGTT | 0.17 kcal/mol

Row | Sequence | relative binding free energy
101 | AGCGGCACGTGGGCGA | -0.27 kcal/mol
102 | ATGGGCACGTGGTCGC | -0.17 kcal/mol
103 | CTGTACACGTGAGCGT | 0.26 kcal/mol
104 | TTGCACACGTGTCGTG | 0.1 kcal/mol
105 | TTGTGCACGTGAGATT | 0.32 kcal/mol
106 | AGCGACACGTGGTTTG | -0.05 kcal/mol
107 | TGTATCACGTGATTTC | 0.26 kcal/mol
108 | AGTTGCACGTGAGGAT | 0.22 kcal/mol
109 | TCTTGCACGTGTGCGG | 0.05 kcal/mol
110 | TGTGGCACGTGTCTGA | -0.04 kcal/mol
111 | CGTATCACGTGATGTA | 0.13 kcal/mol
112 | GAGTTCACGTGGGTCT | 0.3 kcal/mol
113 | GGGGTCACGTGCGGGC | 0.18 kcal/mol
114 | ATGACCACGTGGGTTG | -0.13 kcal/mol
115 | AGTATCACGTGGACGG | 0.06 kcal/mol
116 | TATGGCACGTGGCATT | -0.14 kcal/mol
117 | CGCGGCACGTGTGGGG | -0.09 kcal/mol
118 | TAAGTCACGTGGCTTT | 0.06 kcal/mol
119 | GAGGTCACGTGATAGA | 0.35 kcal/mol
120 | TCGATCACGTGTGGGT | 0.16 kcal/mol
121 | GCTGGCACGTGTTTTG | -0.13 kcal/mol
122 | GGGTCCACGTGCTGTG | 0 kcal/mol
123 | ATCTACACGTGGTGTG | 0.03 kcal/mol
124 | TGGTACACGTGTTAGT | 0.01 kcal/mol
125 | GATGTCACGTGGGATT | 0.05 kcal/mol

Row | Sequence | relative binding free energy
126 | TTGTACACGTGTGGCA | 0.06 kcal/mol
127 | TATAGCACGTGGTGGG | -0.12 kcal/mol
128 | ATTGCCACGTGCGTGG | -0.23 kcal/mol
129 | CTGTTCACGTGTAAGA | 0.27 kcal/mol
130 | TGTTCCACGTGTAGGA | -0.05 kcal/mol
131 | TTTGTCACGTGTTCTA | 0.12 kcal/mol
132 | GTCGCCACGTGGTTGT | -0.1 kcal/mol
133 | ATTTTCACGTGTTGCA | 0.3 kcal/mol
134 | GGTATCACGTGTTTAA | -0.01 kcal/mol
135 | TTGTGCACGTGCTAAG | -0.16 kcal/mol
136 | TGGGTCACGTGTGTCT | 0.08 kcal/mol
137 | GACTGCACGTGGTTGT | 0.18 kcal/mol
138 | AGAGGCACGTGTCTTT | 0.06 kcal/mol
139 | GTTTCCACGTGGGCTG | 0.05 kcal/mol
140 | TGGAGCACGTGGCATG | -0.32 kcal/mol
141 | TTGGGCACGTGCAGCG | -0.14 kcal/mol
142 | TGAGTCACGTGTCTGA | 0.15 kcal/mol
143 | AGTCACACGTGTGTTA | 0.05 kcal/mol
144 | GGGTACACGTGGGCTA | -0.07 kcal/mol
145 | AGATGCACGTGTGTAA | -0.02 kcal/mol
146 | GGATTCACGTGGCATT | 0.16 kcal/mol
